# Measurements from the supplement of paper PMC12217912.
# The list shows a part of the results. Sequences were assembled here from the parent chain. Values near 0.05 are background.
# B1: TEV protease; numbered along this chain (parent)
# chain: MGESLFKGPRDYNPISSSICHLTNESDGHTTSLYGIGFGPFIITNKHLFRRNNGTLVVQSLHGVFKVKDTTTLQQHLVDGRDMIIIRMPKDFPPFPQKLKFREPQREERICLVTTNFQTKSMSSMVSDTSCTFPSGDGIFWKHWIQTKDGQCGSPLVSTRDGFIVGIHSASNFTNTNNYFTSVPKNFMELLTNQEAQQWVSGWRLNADSVLWGGHKVFMVKPEEPFQPVKEATQL
# Variants of: B1
# Test: raw area under fraction-flipped curve 0-4 h after induction (AUC4h, not background-subtracted), DNA-recorder readout of cleavage of the substrate (dimensionless); higher = more cleavage of the substrate by the protease variant
# Conditions: temperature: 34 °C; time window: 0-4 h after rhamnose induction
# Experimental: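 In vivo DNA recorder in E. coli TOP10(DE3) ΔrhaA at 34 °C. Each TEVp single-site mutant (parent TEVp 0) is paired with a single-site variant of the 7-mer TEVs (canonical ENLYFQ|S). The substrate sits between flexible linkers in a Bxb1-sfGFP-TEVs-SsrA fusion, so cleavage stabilises Bxb1 and speeds flipping of a recombination array, read by NGS. The value is the raw area under the fraction-flipped curve over 0-4 h after rhamnose induction (AUC4h), with ≥20 reads per time point. It is not background-subtracted; inactive controls average about 0.047.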
# 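Also: Bxb1 expression induced with 0.2% (w/v) L-rhamnose at OD600 near 0.5, cultures sampled hourly, flipped fraction per protease–substrate barcode pair counted by paired-end Illumina sequencing.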
Variant,area with substrate ANLYFQS,area with substrate CNLYFQS,area with substrate DNLYFQS,area with substrate FNLYFQS,area with substrate GNLYFQS,area with substrate HNLYFQS,area with substrate INLYFQS,area with substrate KNLYFQS,area with substrate LNLYFQS,area with substrate MNLYFQS,area with substrate NNLYFQS,area with substrate PNLYFQS,area with substrate QNLYFQS,area with substrate SNLYFQS,area with substrate TNLYFQS,area with substrate VNLYFQS,area with substrate WNLYFQS,area with substrate YNLYFQS,area with substrate RNLYFQS
S32H,0.0601,0.0911,0.0815,0.0594,0.057,0.0675,0.0661,0.0592,0.051,0.074,0.0641,0.0629,0.065,0.0736,0.0705,0.0691,0.0592,0.0621,–
I42Y,0.05,0.0482,0.0553,0.0384,0.0414,0.0406,0.0482,0.0524,0.0425,0.0453,0.0391,0.0352,0.0675,0.038,0.0441,–,0.0375,0.0373,0.0376
I42C,0.0455,0.0745,0.0836,0.0699,0.0522,0.0634,0.0593,0.0589,0.0612,0.0645,0.0583,–,–,0.0648,0.0672,0.0674,0.0605,0.0581,–
F41W,0.0486,0.0661,0.0661,–,–,0.0603,0.0546,0.0578,–,0.0658,0.0516,0.0631,–,–,0.0651,–,0.0654,0.0565,–
S26K,0.0674,0.0589,0.0493,–,–,0.0592,0.0583,–,0.0551,0.0814,0.0455,0.0563,–,0.0593,–,0.0416,0.0593,0.0517,–
S26F,0.062,0.0568,0.0613,0.0621,0.0615,0.0583,0.053,0.0598,0.0667,–,0.0529,0.0583,–,0.0524,0.0568,0.0555,0.0626,0.0555,–
L33P,0.0471,0.0484,0.0697,0.0156,–,0.0464,0.0411,0.0436,0.0487,–,0.0378,0.05,–,0.0564,0.0494,–,0.0581,–,0.0751
H29E,0.0721,0.0851,0.0665,–,0.0635,0.0741,0.0649,0.0673,0.066,0.0703,–,0.078,0.0644,0.0592,0.072,–,0.0441,0.0646,0.0694
H29R,0.0588,0.0684,0.0728,0.0567,–,0.083,–,–,0.0666,–,0.003,0.0532,–,0.062,0.0486,–,0.0628,0.0618,–
H29L,0.0713,0.057,0.0957,0.0655,0.0577,0.0593,–,0.0714,–,0.0662,0.08,0.0579,0.0716,–,0.0608,0.067,0.0579,0.0681,–
H29D,0.0756,0.0834,0.0791,0.0643,–,–,0.0598,–,0.0578,0.0496,0.0476,0.0643,–,–,0.0757,–,0.0561,0.0687,–
H29A,0.0623,0.0726,0.0943,–,0.0816,0.0584,0.0632,–,0.0609,0.0494,0.0514,0.0854,–,0.0635,0.0636,–,0.0625,0.0665,–
